Measured values taken from article PMC4336329 (PLoS ONE, 2015).
Screen size: about 310,000 compounds; about 14,000 (4.5%) showed an effect of 50% or more. The effect is printed as a negative number. The list shows a part of the results.

target: human ether-à-go-go-related gene (hERG) potassium channel (human, UniProt Q12809); assay: primary screen, population patch clamp on CHO cells stably expressing hERG
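Also: peak tail current of the secondary pulse compared with the same well before compound.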

human ether-à-go-go-related gene (hERG) potassium channel, sequence (Q12809 whole entry, looked up): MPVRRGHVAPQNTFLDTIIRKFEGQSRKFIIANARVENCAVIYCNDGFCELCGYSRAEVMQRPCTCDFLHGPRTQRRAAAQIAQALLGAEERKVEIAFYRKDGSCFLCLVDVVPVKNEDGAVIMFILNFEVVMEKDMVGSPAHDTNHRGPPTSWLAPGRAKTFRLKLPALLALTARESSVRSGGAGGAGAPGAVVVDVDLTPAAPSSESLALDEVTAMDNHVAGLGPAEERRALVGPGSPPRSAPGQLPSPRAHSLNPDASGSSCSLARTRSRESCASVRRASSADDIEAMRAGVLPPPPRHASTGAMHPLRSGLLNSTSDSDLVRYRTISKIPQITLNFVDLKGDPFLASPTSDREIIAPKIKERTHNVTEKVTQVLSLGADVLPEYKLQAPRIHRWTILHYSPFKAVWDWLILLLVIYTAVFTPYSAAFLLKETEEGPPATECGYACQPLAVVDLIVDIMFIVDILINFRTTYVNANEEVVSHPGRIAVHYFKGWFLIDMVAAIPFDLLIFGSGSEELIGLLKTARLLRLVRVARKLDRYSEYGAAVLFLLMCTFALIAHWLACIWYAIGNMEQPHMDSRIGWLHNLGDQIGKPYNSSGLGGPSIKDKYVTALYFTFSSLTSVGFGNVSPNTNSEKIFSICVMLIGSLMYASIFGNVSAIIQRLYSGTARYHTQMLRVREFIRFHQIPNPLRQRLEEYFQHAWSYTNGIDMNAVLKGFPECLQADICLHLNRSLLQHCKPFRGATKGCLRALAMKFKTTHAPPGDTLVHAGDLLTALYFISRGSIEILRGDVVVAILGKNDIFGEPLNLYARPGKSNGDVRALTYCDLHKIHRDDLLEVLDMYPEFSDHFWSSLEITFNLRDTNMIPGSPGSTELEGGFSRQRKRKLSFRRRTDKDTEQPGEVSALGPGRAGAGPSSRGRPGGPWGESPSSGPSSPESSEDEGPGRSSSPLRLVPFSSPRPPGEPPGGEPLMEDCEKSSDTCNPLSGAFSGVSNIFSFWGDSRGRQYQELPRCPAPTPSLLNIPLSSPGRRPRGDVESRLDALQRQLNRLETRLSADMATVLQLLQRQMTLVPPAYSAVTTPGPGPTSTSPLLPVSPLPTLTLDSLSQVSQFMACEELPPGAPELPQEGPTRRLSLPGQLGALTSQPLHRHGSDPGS

In order of rising “hERG current change (%, negative = inhibition) at 10uM” value:
1. CCC(=O)c1ccc(OCC(=O)Nc2cc(S(=O)(=O)N3CCCCC3)ccc2N2CCN(CC)CC2)cc1  -84.3%
2. CCN(CC(=O)NCc1ccc(F)cc1)CC(=O)Nc1cc(S(=O)(=O)N(C)C)ccc1C  -75.6%
3. CCOc1cc(/C=N/NC(=O)CN2CCCCC2)ccc1OCc1cccc(Cl)c1  -45.3%
4. Cc1ccc(-c2nn3c(C)nnc3c3ccccc23)cc1S(=O)(=O)NC(C)(C)CO  -21.9%
5. COc1ccc(/C=N/NC(=O)CCSc2nc3ccccc3s2)cc1  -18%
6. OC(C#CCN1CCCCCC1)(c1ccccc1)c1cccnc1 (stereo not drawn)  -13%
7. Cc1[nH]c2ccccc2c1CN1CCc2ccccc2C1  -12.9%
8. Brc1cccc(OCCOCCn2ccnc2)c1.O=C(O)C(=O)O  -12.6%
9. Cc1ccsc1/C=N/NC(=O)Cc1ccc(Cl)cc1  -6.82%
10. O=C(Oc1cccc2ccccc12)c1ccco1  -6.45%
11. CN(C)C(=O)CSc1nnc(NC(=O)CCc2ccccc2)s1  -5.24%
12. O=c1c2ccccc2nc(-c2ccoc2)n1CCc1ccccc1  -3.87%
13. CC(=O)N1CCCc2cc(S(=O)(=O)N3CCCC(C(=O)N4CCN(c5cc(C)ccc5C)CC4)C3)ccc21 (stereo not drawn)  -3.55%
14. CCC(Sc1nc(N)c(NC(=O)c2ccc(OC)c(OC)c2)c(=O)[nH]1)C(=O)OC (stereo not drawn)  -2.71%
15. CC(C)CC(=O)Nc1ccc(C(=O)CN2CCN(c3ccc(O)cc3)CC2)cc1  -1.5%
16. CCN(CC)S(=O)(=O)c1ccc(C(=O)NCC(c2cccs2)N2CCOCC2)cc1.Cl (stereo not drawn)  -1.42%
17. Nc1nc2ccccc2n1/N=C/c1ccc([N+](=O)[O-])s1  -1.38%
18. Cc1cc(C)cc(N(C(=O)c2csnn2)C(C(=O)NC2CCCCC2)c2ccccn2)c1 (stereo not drawn)  -0.36%
19. CC(NC(=O)/C=C/c1ccccc1)c1ccccc1 (stereo not drawn)  2.68%
20. C/C(=N\Nc1ccc(Cl)c(C(=O)O)c1)c1cccc([N+](=O)[O-])c1  2.73%
21. O=[N+]([O-])c1cccc(S(=O)(=O)Nc2ccc(S(=O)(=O)N3CCCC3)cc2)c1  2.95%
22. O=S(=O)(Nc1ccc(Br)cc1)c1cccc2nonc12  5.71%
23. NC(=O)c1ccc(NC(=O)Cn2c(=O)n(-c3ccccc3)c(=O)c3oc4ccccc4c32)cc1  5.82%
24. O=C(O)Cn1c(SCCOc2ccccc2F)nc2ccccc21  5.87%
25. O=C1c2cccc3c([N+](=O)[O-])c(O)cc(c23)C(=O)N1Nc1ccccc1  5.98%
26. CCOC(=O)N1C(=O)[C@](CC)(c2ccccc2)N1C(=O)OCC  6.48%
27. CC(=O)Nc1cccc(-c2cc(-c3c(Cl)cccc3Cl)no2)c1  6.51%
28. Cc1cc(C)nc(Sc2ncnc(N)c2[N+](=O)[O-])n1  6.79%
29. O=c1c(OC2OC(CO)C(O)C(O)C2OC2OC(CO)C(O)C(O)C2O)c(-c2ccc(O)cc2)oc2cc(O)cc(O)c12 (stereo not drawn)  7.28%
30. O=C1OC(Nc2ccc(Br)cn2)c2ccccc21 (stereo not drawn)  7.42%
31. CCOc1ccc(NC(=O)C(C)N2C(=O)c3ccccc3C2=O)cc1 (stereo not drawn)  8.03%
32. COc1ccc(CC(=O)OCc2cc3ccc(C)cc3[nH]c2=O)cc1  9.18%
33. O=C(NCCN1CCOCC1)C(=O)c1c[nH]c2ccccc12  10.1%
34. COc1ccc(Cl)cc1NC(=O)CN1C(=O)CSC1=O  10.8%
35. C/C(=N\NC(=O)CNC(=O)c1cccnc1)c1cccc(O)c1  11.9%
36. NC(=O)c1nn(-c2ccc(Cl)cc2Cl)c(=O)cc1O  12.6%
37. COCCN(C(=S)Nc1ccc(OC)cc1)C1CCN(C(C)=O)CC1  12.6%
38. O=C(O)/C=C/C(=O)Nc1ccccc1C(=O)Nc1ccccc1  14.1%
39. COC(=O)c1ccc(S(=O)(=O)N2CCC(C(N)=O)CC2)n1C  14.8%
40. COc1ccc(NC(=O)CN2c3cccc4cccc(c34)S2(=O)=O)cc1  17.3%
41. Cc1ccc(Cl)cc1N1CCN(C2CCCCC2NS(=O)(=O)c2ccccc2)CC1 (stereo not drawn)  17.9%
42. CCc1ccc(NS(=O)(=O)c2ccc(OC)c3ncccc23)cc1  18.1%
43. Cc1ccc(S(=O)(=O)Nc2ncccn2)cc1  21.1%
44. Nc1nc(SCCO)[nH]c(=O)c1NC(=O)c1ccccc1F  21.5%
45. Cc1cccc(Nc2nn3c(=O)c4ccccc4nc3s2)c1  23.6%
